Results as given in the supplement of paper PMC4604168 (melanoma cell lines).
The other results are listed elsewhere or left out. Repeats are few or missing, and single values can be far off.

What follows are compounds tested on C32 (assay: cell count relative to DMSO control; melanoma cells; higher = more viable cells). Details: library dose: low library concentration; 72 h.
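Further: cell number obtained by counting DAPI-stained nuclei in high-throughput microscope images with image analysis software, screen run in 1,536-well plates.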

Q: Which cell count does the source give for COc1ccc(COc2ccc(Cc3cnc(N)nc3N)cc2OC)cc1 + Cc1cc(SCc2sc(-c3ccc(C(F)(F)F)c(F)c3)nc2C)ccc1OCC(=O)O [GW0742] (first compound 1 µM, partner dose 2 µM) here?
A: 101%

Q: How did the cell count turn out when Clc1ccc(Nc2nnc(Cc3ccncc3)c3ccccc23)cc1 [vatalanib] + C[As](C)SC[C@H](NC(=O)CC[C@H](N)C(=O)O)C(=O)NCC(=O)O [Darinaparsin] (first compound 2 µM, partner dose 0.4 µM) was run?
A: 104%

Q: COc1ccc(COc2ccc(Cc3cnc(N)nc3N)cc2OC)cc1 + C/C(O)=C(\C#N)C(=O)Nc1cc(Br)ccc1Br [LFM-A13] (first compound 1 µM, partner dose 2 µM) was tested. Which cell count did it give?
A: 105%

Q: With COCC[n+]1c2c(n(Cc3cnccn3)c1C)C(=O)c1ccccc1C2=O + Cc1cc(SCc2sc(-c3ccc(C(F)(F)F)c(F)c3)nc2C)ccc1OCC(=O)O [GW0742] (first compound 0.0004 µM, partner dose 2 µM) as the compound, how does the cell count read?
A: 114%

Q: With O=C(CCCCCCC(=O)Nc1ccccc1)NO [vorinostat] + Cc1cc(SCc2sc(-c3ccc(C(F)(F)F)c(F)c3)nc2C)ccc1OCC(=O)O [GW0742] (first compound 0.08 µM, partner dose 2 µM) as the compound, how does the cell count read?
A: 108%

Q: How did the cell count turn out when Cc1cc(Nc2cc(N3CCN(C)CC3)nc(Sc3ccc(NC(=O)C4CC4)cc3)n2)n[nH]1 [Tozasertib] + C[C@]12O[C@H](C[C@]1(O)CO)n1c3ccccc3c3c4c(c5c6ccccc6n2c5c31)CNC4=O [Lestaurtinib] (first compound 0.006 µM, partner dose 0.004 µM) was run?
A: 114%

Q: Which cell count does the source give for O=C(O)c1ccc2c(c1)nc(Nc1cccc(Cl)c1)c1ccncc12 + C[As](C)SC[C@H](NC(=O)CC[C@H](N)C(=O)O)C(=O)NCC(=O)O [Darinaparsin] (first compound 0.4 µM, partner dose 0.4 µM) here?
A: 89.6%

Q: How did the cell count turn out when Cn1c(Nc2ccc(C(F)(F)F)cc2)nc2cc(Oc3ccnc(-c4ncc(C(F)(F)F)[nH]4)c3)ccc21 + Cc1cc(SCc2sc(-c3ccc(C(F)(F)F)c(F)c3)nc2C)ccc1OCC(=O)O [GW0742] (first compound 0.08 µM, partner dose 2 µM) was run?
A: 78.2%

Q: With C#Cc1cccc(Nc2ncnc3cc(OCCOC)c(OCCOC)cc23)c1 [erlotinib] + O=C(Oc1ccc([N+](=O)[O-])cc1)N1CCC(C(O)(c2ccc3c(c2)OCO3)c2ccc3c(c2)OCO3)CC1 [JZL184] (first compound 0.8 µM, partner dose 1 µM) as the compound, how does the cell count read?
A: 91.8%

Q: How did the cell count turn out when Cc1cc(Nc2cc(N3CCN(C)CC3)nc(Sc3ccc(NC(=O)C4CC4)cc3)n2)n[nH]1 [Tozasertib] + Cn1cc(C2=C(c3cn(C4CCN(Cc5ccccn5)CC4)c4ccccc34)C(=O)NC2=O)c2ccccc21 [Enzastaurin] (first compound 0.006 µM, partner dose 0.8 µM) was run?
A: 123%

Q: How did the cell count turn out when O=C(CCCCCCC(=O)Nc1ccccc1)NO [vorinostat] + C/C(O)=C(\C#N)C(=O)Nc1cc(Br)ccc1Br [LFM-A13] (first compound 0.08 µM, partner dose 2 µM) was run?
A: 116%

Q: For Oc1cc(-c2nc(-c3ccccc3)[nH]c2-c2ccncc2)ccc1Cl + C/C(O)=C(\C#N)C(=O)Nc1cc(Br)ccc1Br [LFM-A13] (first compound 0.2 µM, partner dose 2 µM), which cell count is on record?
A: 85.2%

Q: c1cc(-c2cnn3cc(-c4ccc(OCCN5CCCCC5)cc4)cnc23)ccn1 [Dorsomorphin] + O=C(Oc1ccc([N+](=O)[O-])cc1)N1CCC(C(O)(c2ccc3c(c2)OCO3)c2ccc3c(c2)OCO3)CC1 [JZL184] (first compound 0.4 µM, partner dose 1 µM) was tested. Which cell count did it give?
A: 95.1%

Q: For CN1CCN(c2ccc3nc(-c4c(N)c5c(F)cccc5[nH]c4=O)[nH]c3c2)CC1 [Dovitinib] + C[As](C)SC[C@H](NC(=O)CC[C@H](N)C(=O)O)C(=O)NCC(=O)O [Darinaparsin] (first compound 0.1 µM, partner dose 0.4 µM), which cell count is on record?
A: 96.5%

Q: For Cc1cc(Nc2cc(N3CCN(C)CC3)nc(Sc3ccc(NC(=O)C4CC4)cc3)n2)n[nH]1 [Tozasertib] + C[As](C)SC[C@H](NC(=O)CC[C@H](N)C(=O)O)C(=O)NCC(=O)O [Darinaparsin] (first compound 0.006 µM, partner dose 0.4 µM), which cell count is on record?
A: 109%
